Data as given in PubChem BioAssay AID360 (National Center for Advancing Translational Sciences (NCATS), 2006).
Hit rate of the full screen: of about 48,000 compounds, about 550 (1.1%) were called active. Not shown: some 4% with an inconclusive outcome. No stated cut-off is given here; in the data, active means potency below about 15 µM; inconclusive means mostly about 16 µM to 33 µM; inactive means weaker than that. The list shows a part of the results.

molecular target: Lysosomal acid glucosylceramidase (Homo sapiens) (UniProt P04062); experiment: Glucocerebrosidase; details: purified enzyme, resorufin glucoside fluorescence (screen aimed at inhibitors), 20 min;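 further: the screen sought inhibitors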
Method in brief: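 Compounds titrated against 0.2 nM normal enzyme, 30 uM resorufin beta-D-glucopyranoside substrate, citrate/phosphate buffer with taurocholate and tween-20, pH 5.9. Reaction ran 20 min at room temperature; fluorescence (Ex 548/Em 600) gave AC50.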
Potency means the concentration at half of the fitted maximal effect.

UniProt P04062, sequence (P04062 whole entry, looked up): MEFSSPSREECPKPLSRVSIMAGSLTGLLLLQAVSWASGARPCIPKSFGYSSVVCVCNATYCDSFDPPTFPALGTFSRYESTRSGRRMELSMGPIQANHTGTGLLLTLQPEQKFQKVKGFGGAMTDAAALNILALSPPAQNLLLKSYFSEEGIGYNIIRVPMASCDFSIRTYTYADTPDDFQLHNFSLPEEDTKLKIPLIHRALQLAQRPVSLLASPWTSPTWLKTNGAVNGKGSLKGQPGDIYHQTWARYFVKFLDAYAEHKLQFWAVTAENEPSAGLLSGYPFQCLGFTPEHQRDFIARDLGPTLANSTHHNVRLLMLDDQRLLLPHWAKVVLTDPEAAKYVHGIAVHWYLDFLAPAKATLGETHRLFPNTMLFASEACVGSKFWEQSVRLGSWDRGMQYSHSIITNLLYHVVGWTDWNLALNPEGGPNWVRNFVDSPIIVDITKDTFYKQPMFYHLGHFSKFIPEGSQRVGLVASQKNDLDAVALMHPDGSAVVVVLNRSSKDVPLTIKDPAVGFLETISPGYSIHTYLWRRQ

Potency, inactive:
CC1(C)NC(=O)NC2(C)NC(=O)NC(C)(C)C12 (stereo not drawn) > 76.9 µM, COCc1[nH]nc2c1C1(C(=O)N(C)c3ccccc31)C(C#N)=C(N)O2 (stereo not drawn) > 76.9 µM, O=c1c2[nH]c3ccccc3c2ncn1C1CCCCC1 > 76.9 µM, Cc1c(C(=O)N2CCN(S(C)(=O)=O)CC2)oc2ccccc12 > 76.9 µM, N#CC1=C2SCN(Cc3ccccc3)CN2C(=O)CC1c1ccc2c(c1)OCO2 (stereo not drawn) > 76.9 µM, CCCn1nnnc1NCc1ccccc1OCc1ccc(F)cc1 > 76.9 µM, CCN(CC)CCN1C(=O)C(O)=C(C(C)=O)C1c1ccccc1 (stereo not drawn) > 76.9 µM, COCCCNC(=O)c1cn(Cc2c(F)cccc2Cl)nn1 > 76.9 µM, Clc1ccc(OCc2nnc(-c3ccccc3Br)o2)cc1 > 76.9 µM, CCCS(=O)(=O)c1c(S(=O)(=O)CCC)c2cnccn2c1C(=O)c1ccc(F)cc1 > 76.9 µM, Cc1nc2c3ccccc3[nH]c(=O)n2n1 > 76.9 µM, O=c1c2ccccc2c(C=NCCO)c(O)n1-c1ccccc1 > 76.9 µM, O=C(CN1C(=O)C2CCc3[nH]c4ccccc4c3C2C1=O)N1CCCC1 (stereo not drawn) > 76.9 µM, COC(=O)COc1ccc2oc(=O)cc(C)c2c1 > 76.9 µM, NC(=O)CSc1nnc(-c2ccc(S(=O)(=O)N3CCCC3)cc2)n1CC1CCCO1 (stereo not drawn) > 76.9 µM, O=S(=O)(NCc1cccnc1)c1ccc(Cl)c(Cl)c1Cl > 76.9 µM, NC(=O)CSc1nc2sc3c(c2c2ncnn12)CCCC3 > 76.9 µM, O=C(CN1CCN(C(c2ccccc2)c2ccccc2)CC1)N1CCOCC1 > 76.9 µM, O=C(CN1C(=O)c2ccccc2C1=O)N1CCN(c2ccccc2)CC1 > 76.9 µM, Cc1cc(NC(c2cccnc2)c2c(C)[nH]c3ccccc23)no1 (stereo not drawn) > 76.9 µM, O=C(CSc1nnc(-c2cccnc2)o1)Oc1ccccc1 > 76.9 µM, CCOC(=O)C1CCN(C=Nc2cc(C)on2)CC1 > 76.9 µM, COc1ccc(C(=O)N2CCN(C(C)=O)CC2)cc1S(=O)(=O)NCc1ccc(Cl)cc1 > 76.9 µM, CC(NC(=O)C1CC=CCC1C(=O)O)C1CC2CCC1C2 (stereo not drawn) > 76.9 µM, COc1ccc(CN2CC(C(=O)NCc3cccc(OC)c3)CC2=O)cc1 (stereo not drawn) > 76.9 µM, Cc1ccc(S(=O)(=O)N(Cc2cc3cc4c(cc3[nH]c2=O)OCCO4)CC2CCCO2)cc1 (stereo not drawn) > 76.9 µM, O=C(O)c1cc(NCc2ccc3c(c2)OCO3)ccc1N1CCOCC1 > 76.9 µM, CCOC(=O)N1CCN(CC(=O)Nc2c(C(=O)OC)[nH]c3ccc(Cl)cc23)CC1 > 76.9 µM, COC(=O)C1=C(C)Nc2ncnn2C1c1ccco1 (stereo not drawn) > 76.9 µM, Cc1nc(NCc2ccco2)c2c3c(sc2n1)CCC3 > 76.9 µM, COc1cc2[nH]c3c(N4CCN(c5ccccn5)CC4)ncnc3c2cc1OC > 76.9 µM, CC(C)c1nnc(NC(=O)c2c(O)c3cccc4c3n(c2=O)CC4)s1 > 76.9 µM, CSc1ccccc1NC(=O)c1noc2c1CCC2 > 76.9 µM, Cc1cc(NC(=O)c2ocnc2C)no1 > 76.9 µM, O=C(O)c1ccc(-n2c(-c3ccccc3)n[nH]c2=S)cc1 > 76.9 µM, Cc1cc(C(F)(F)F)nn1-c1nc(-c2ccco2)cc(C(F)(F)F)n1, CC1CCCC(C)N1C(=O)CSc1nnc(-c2cccs2)o1 (stereo not drawn) > 76.9 µM, O=C(NCCO)c1nc(NCCO)c2ccccc2n1 > 76.9 µM, Cc1cc(=O)n2nc(N3CCCC(C(=O)NCCc4ccccc4)C3)sc2n1 (stereo not drawn) > 76.9 µM, Cn1c(=O)n(C)c2cc(S(=O)(=O)NCc3ccco3)ccc21 > 76.9 µM, CCOc1ccccc1C(=O)NCCCN1CCN(CCCNC(=O)c2ccccc2OCC)CC1 > 76.9 µM, COc1ccccc1CNc1ncnc2c1nnn2Cc1ccccc1 > 76.9 µM, CCC(C)c1cc(S(=O)(=O)N2CCOCC2)ccc1OC (stereo not drawn) > 76.9 µM, CCCCC(SCC(=O)Nc1ccccc1)C(=O)O (stereo not drawn) > 76.9 µM, COc1cc(C(=O)NCCC(=O)NCCN2CCOCC2)cc(OC)c1OC > 76.9 µM, COc1ccc(CN2CC(C(=O)NCCN3CCOCC3)CC2=O)cc1 (stereo not drawn) > 76.9 µM, COc1ccc(C2=NO[C@@H]3C(=O)N(c4cccc(C)c4C)C(=O)[C@H]23)cc1OC > 76.9 µM, CSc1nc2c(c(=O)[nH]c(=O)n2C)n1C/C=C(\C)Cl > 76.9 µM, C=CCN=C1CC(C)(C)CC(=O)/C1=C(/O)CCC(=O)OC > 76.9 µM, O=C(Nc1cccc(N2CCCC2)c1)c1cccs1 > 76.9 µM, COC(=O)C1=C(N)n2c(s/c(=C\c3cccnc3)c2=O)=C(C(=O)OC)C1c1cccnc1 (stereo not drawn) > 76.9 µM, C/C=C/Cn1c(SCc2ccccc2)nc2c1c(=O)[nH]c(=O)n2C > 15.4 µM, CC1CC(C)CN(S(=O)(=O)c2ccc(C(=O)N3CCN(c4ccccc4)CC3)cc2)C1 (stereo not drawn) > 76.9 µM, CCN(CC)S(=O)(=O)c1ccc2oc(C(=O)NCc3ccc(F)cc3)c(C)c2c1 > 76.9 µM, O=C(C1CCC1)N1CCC(c2nc3c(nnn3Cc3c(F)cccc3Cl)c(=O)[nH]2)CC1 > 76.9 µM, CCC(C)NC(=O)C(NS(=O)(=O)c1cccc2nsnc12)c1ccccc1 (stereo not drawn) > 76.9 µM, CN(C)CC(C)(C)CNC(=O)C1CCN(Cc2ccccc2O)CC1 > 76.9 µM, CCOC(=O)N1CCN(CC(=O)Nc2cc(OCC)ccc2OCC)CC1 > 76.9 µM
